According to the supplement of paper PMC9446081:
About 220 (0.56%) of roughly 39,000 compounds showed activity. The list shows a part of the results.

The compounds below were run on Escherichia coli K-12 BW25113 (assay: relative growth (OD600 normalised to plate interquartile mean) (fraction); higher = less growth inhibition, active = 0.2 or less). Settings: 50 µM; LB; incubation time: overnight (16-24 h).
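Note: static incubation at 37 °C against the wild-type strain, values averaged over two biological replicates.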

| SMILES | relative growth |
| --- | --- |
| C[C@@H]1CN([C@H](C)CO)C(=O)c2cc(NC(=O)Nc3cccc4ccccc34)ccc2O[C@@H](C)CCCCO[C@@H]1CN(C)C(=O)c1ccccc1 | inactive: 1.03 |
| C[C@@H]1CN([C@H](C)CO)C(=O)c2cc(C#Cc3cccnc3)cnc2O[C@H]1CN(C)S(C)(=O)=O | inactive: 0.999 |
| NCc1ccc2cc[nH]c(=O)c2c1 | inactive: 1.01 |
| CC(C)(C)[S@@](=O)N1Cc2cc(C(=O)NCc3ccccc3F)nc(-c3cccc(-c4ccncc4)c3)c2[C@H]1CCO | inactive: 1.01 |
| C[C@@H]1CN([C@H](C)CO)C(=O)c2cccc(NC(=O)c3cnccn3)c2O[C@@H]1CN(C)Cc1ccncc1 | inactive: 0.983 |
| C[C@@H]1CN([C@@H](C)CO)C(=O)c2cccc(NS(=O)(=O)c3ccccc3)c2O[C@H]1CN(C)Cc1ccc(Cl)c(Cl)c1 | inactive: 1.02 |
| O=C(C[C@H]1CC[C@H]2[C@@H](COC[C@H](O)CN2S(=O)(=O)c2ccc(Cl)cc2)O1)N[C@H]1CCN(Cc2ccccc2)C1 | inactive: 1.02 |
| Cc1noc(C)c1S(=O)(=O)Nc1ccc2c(c1)CC(=O)N([C@@H](C)CO)C[C@H](C)[C@H](CN(C)C(=O)NC1CCCCC1)O2 | inactive: 1.03 |
| C[C@@H]1CCCCO[C@H](CN(C)Cc2ccc(Cl)c(Cl)c2)[C@@H](C)CN([C@H](C)CO)C(=O)c2cc(NC(=O)Cc3ccccc3)ccc2O1 | inactive: 1.02 |
| C[C@@H]1CCCCO[C@@H](CN(C)C(=O)Nc2ccc3c(c2)OCO3)[C@H](C)CN([C@@H](C)CO)C(=O)c2cc(NC(=O)Cc3ccccc3)ccc2O1 | inactive: 1.03 |
| C[C@H]1CCCCO[C@H](CN(C)C(=O)NC2CCCCC2)[C@@H](C)CN([C@@H](C)CO)C(=O)c2cc(NC(=O)Nc3ccccc3)ccc2O1 | inactive: 1 |
| C[C@H]1CCCCO[C@@H](CN(C)C(=O)Cc2ccccc2)[C@@H](C)CN([C@@H](C)CO)C(=O)c2cc(NC(=O)CCC(F)(F)F)ccc2O1 | inactive: 0.984 |
| CCCNC(=O)N(C)C[C@@H]1Oc2cc(C#Cc3cccc(F)c3)ccc2S(=O)(=O)N([C@@H](C)CO)C[C@@H]1C | inactive: 0.992 |
| CC1=CC2(CO)C(=O)[C@]3(CO3)C1[C@H]1[C@]2(C)C=C(CO)C(=O)[C@]12CO2 (stereo partly specified) | inactive: 0.857 |
| COc1ccccc1S(=O)(=O)N1C[C@H](O)COC[C@@H]2O[C@@H](CC(=O)O)CC[C@H]21 | inactive: 0.997 |
| C[C@H](NC(=O)C[C@H]1C=C[C@H](NC(=O)CN2CCOCC2)[C@H](CO)O1)c1ccccc1 | inactive: 1.01 |
| COc1ccc(CC[C@@H](OC(=O)[C@H]2CCCCN2C(=O)Cc2ccccc2)c2cccc(OCC(=O)O)c2)cc1OC | inactive: 0.943 |
| O=C(C[C@H]1C[C@@H]2c3cc(NS(=O)(=O)c4ccc(F)cc4)ccc3O[C@@H]2[C@@H](CO)O1)NCc1ccncc1 | inactive: 0.99 |
| C[C@@H]1CCCCO[C@H](CN(C)S(=O)(=O)c2cccs2)[C@@H](C)CN([C@H](C)CO)C(=O)c2cc(NC(=O)NC3CCCCC3)ccc2O1 | inactive: 0.999 |
| C[C@@H]1CN([C@H](C)CO)C(=O)Cc2cc(NC(=O)CCN3CCOCC3)ccc2O[C@H]1CN(C)C(=O)Nc1ccc(F)cc1 | inactive: 1.01 |
| CN(C)C(=O)c1ccc(-c2cccc(-c3nc(C(=O)NC4CCC4)cc4c3[C@H](CCO)N([S@@](=O)C(C)(C)C)C4)c2)cc1 | inactive: 0.984 |

| SMILES | relative growth |
| --- | --- |
| C[C@@H]1CN([C@@H](C)CO)S(=O)(=O)c2ccc(C#C[C@@H](C)O)cc2O[C@H]1CN(C)C(=O)CN(C)C | inactive: 0.998 |
| COc1ccccc1C#Cc1ccc2c(c1)O[C@H](CN(C)Cc1cncnc1)[C@@H](C)CN([C@H](C)CO)S2(=O)=O | inactive: 1.01 |
| CNC[C@@H]1Oc2ccc(NC(=O)Cn3cnnn3)cc2C(=O)N([C@H](C)CO)C[C@@H]1C | inactive: 0.986 |
| Cc1noc(C)c1S(=O)(=O)N(C)C[C@@H]1Oc2c(NS(=O)(=O)c3ccc(F)cc3)cccc2C(=O)N([C@H](C)CO)C[C@@H]1C | inactive: 1.01 |
| C=C(C)C1COc2cc3oc(=O)ccc3cc2O1 (stereo unspecified) | inactive: 1.11 |
| C[C@H]1CN([C@@H](C)CO)C(=O)c2cccc(NC(=O)c3ccc(-c4nccs4)cc3)c2O[C@H]1CN(C)Cc1ccccc1 | inactive: 0.989 |
| NC(Cc1cc(I)c(Oc2ccc(O)c(I)c2)c(I)c1)C(=O)O (stereo unspecified) | inactive: 1.07 |
| C[C@@H]1CN([C@H](C)CO)C(=O)c2cccc(NC(=O)C3CCOCC3)c2O[C@H]1CN(C)Cc1ccc(C(=O)O)cc1 | inactive: 0.963 |
| CSc1ncc(F)c(N(CCO)CCO)n1 | inactive: 1.01 |
| COCCN1C[C@H]2[C@H](OC)CCN(S(=O)(=O)c3cn(C)cn3)[C@H]2C1 | inactive: 1.01 |
| C/C=C/COc1nc2c(c(=O)n(C)c(=O)n2C)n1C | inactive: 0.994 |
| COCC#Cc1ccc2c(c1)O[C@@H](CN(C)C(=O)COC)[C@H](C)CN([C@@H](C)CO)S2(=O)=O | inactive: 0.976 |
| C[C@@H]1CN([C@H](C)CO)C(=O)c2cc(NC(=O)Nc3ccc(C(F)(F)F)cc3)ccc2O[C@@H](C)CCCCO[C@@H]1CN(C)Cc1ccc2c(c1)OCO2 | inactive: 1.03 |
| C[C@@H]1CCCCO[C@H](CN(C)C(=O)c2ccccc2)[C@H](C)CN([C@H](C)CO)C(=O)c2cc(NS(=O)(=O)c3cccs3)ccc2O1 | inactive: 0.987 |
| C[C@@H]1CN([C@H](C)CO)C(=O)c2cc(NC(=O)Nc3ccc(C(F)(F)F)cc3)ccc2O[C@H]1CN(C)C(=O)NC1CCCCC1 | inactive: 0.838 |
| COc1ccc(CNC(=O)C[C@@H]2CC[C@@H]3[C@@H](COc4ccc(NC(=O)C(C)C)cc4C(=O)N3C)O2)cc1 | inactive: 1 |
| CN(C)CCCN1C(=O)[C@@]2(Cc3ccccc31)c1ccccc1C(=O)N(Cc1ccccc1)[C@H]2c1ccc(CO)cc1 | inactive: 1 |
| C[C@@H]1CN([C@H](C)CO)C(=O)c2cc(NC(=O)Nc3ccc(C(F)(F)F)cc3)ccc2O[C@@H](C)CCCCO[C@@H]1CN(C)S(=O)(=O)c1cn(C)cn1 | inactive: 1.05 |
| Cc1ccc(S(=O)(=O)N(C)C[C@@H]2Oc3ccc(N(C)C)cc3CC(=O)N([C@@H](C)CO)C[C@H]2C)cc1 | inactive: 0.991 |
| O=C(O)CNS(=O)(=O)c1ccccc1F | inactive: 1.05 |
| Cc1noc(C)c1NC(=O)N(C)C[C@@H]1Oc2ncc(C#CCN(C)C)cc2C(=O)N([C@H](C)CO)C[C@H]1C | inactive: 0.999 |

| SMILES | relative growth |
| --- | --- |
| O=C(C[C@H]1CC[C@@H]2[C@H](COC[C@@H](O)CN2S(=O)(=O)c2ccc(Oc3ccccc3)cc2)O1)NCCN1CCCCC1 | inactive: 1.01 |
| CNC(=O)c1ccc2c(c1)OCO2 | inactive: 1.03 |
| O=C(C[C@H]1C=C[C@@H](NC(=O)c2ccncc2)[C@H](CO)O1)NCc1ccncn1 | inactive: 1.02 |
| C[C@@H]1CN([C@H](C)CO)C(=O)c2cccc(NC(=O)NC3CCCCC3)c2O[C@H]1CN(C)C(=O)Nc1cccc2ccccc12 | inactive: 0.983 |
| c1ccc(Oc2ccccc2)cc1 | inactive: 1.04 |
| COc1ccc(-c2cnc3c(c2)C(=O)N([C@H](C)CO)C[C@@H](C)[C@H](CN(C)C(=O)Cc2ccccn2)O3)cc1 | inactive: 1.01 |
| Cc1noc(C)c1NC(=O)Nc1ccc2c(c1)C(=O)N([C@@H](C)CO)C[C@H](C)[C@@H](CN(C)Cc1ccncc1)OCCCC[C@@H](C)O2 | inactive: 0.964 |
| O=C(CN1CCOCC1)NCC[C@@H]1CC[C@H](NC(=O)c2ccccc2F)[C@@H](CO)O1 | inactive: 0.979 |
| COc1ccc(S(=O)(=O)N(C)C[C@@H]2Oc3cc(Br)ccc3S(=O)(=O)N([C@H](C)CO)C[C@@H]2C)cc1 | inactive: 1.04 |
| COc1ccc(S(=O)(=O)N(C)C[C@H]2Oc3ccc(NC(=O)c4ccncc4)cc3CC(=O)N([C@H](C)CO)C[C@H]2C)cc1 | inactive: 0.984 |
| C[C@@H]1CCCCO[C@@H](CN(C)S(C)(=O)=O)[C@H](C)CN([C@H](C)CO)C(=O)c2cc(NS(C)(=O)=O)ccc2O1 | inactive: 0.974 |
| CN1C(=O)c2cc(NC(=O)c3ccc(F)c(F)c3)ccc2OC[C@H]2O[C@@H](CC(=O)N3CCOCC3)CC[C@H]21 | inactive: 0.933 |
| CO[C@@H](CN(C)S(=O)(=O)c1ccc(Cl)cc1)[C@H](C)CN([C@H](C)CO)S(=O)(=O)c1cccc(Cl)c1 | inactive: 1.02 |
| C[C@H]1CCCCO[C@@H](CN(C)C(=O)Nc2ccc(F)cc2)[C@@H](C)CN([C@@H](C)CO)C(=O)c2cc(NS(=O)(=O)c3ccccc3)ccc2O1 | inactive: 1.01 |
| C[C@@H](O)C#Cc1cnc2c(c1)C(=O)N([C@@H](C)CO)C[C@H](C)[C@@H](CN(C)C(=O)CN1CCOCC1)O2 | inactive: 1.03 |
| C[C@@H]1CN([C@@H](C)CO)C(=O)Cc2cc(NC(=O)Cn3cnnn3)ccc2O[C@@H]1CN(C)C(=O)Nc1ccc2c(c1)OCO2 | inactive: 0.988 |
| COc1ccc(NC(=O)Nc2ccc3c(c2)C(=O)N([C@H](C)CO)C[C@H](C)[C@H](CN(C)Cc2ccc(Oc4ccccc4)cc2)O3)cc1 | inactive: 1.01 |
| C[C@@H]1CN([C@H](C)CO)C(=O)Cc2cc(NC(=O)Cc3ccccc3)ccc2O[C@@H]1CN(C)Cc1ccc(C(F)(F)F)cc1 | inactive: 1.03 |
| C[C@@H]1CN([C@@H](C)CO)C(=O)c2cc(NC(=O)Nc3cccc4ccccc34)ccc2O[C@@H](C)CCCCO[C@H]1CN(C)Cc1ccc(C(F)(F)F)cc1 | inactive: 1.01 |
